# Results reported in paper PMC5892938.
# Some of the results follow. The exact form of the protein is not confirmed.
# Biological target: GST-SBP-ILF3 (Homo sapiens) (UniProt Q12906)
# Experiment: targeted RNA Bind-n-Seq
# Details: RBNS binding buffer: 25 mM Tris pH 7.5, 150 mM KCl, 3 mM MgCl2, 0.1% Tween, 0.5 mg/mL BSA, 1 mM DTT; 27 nM protein, 750 pM RNA pool; temperature not stated; high values mean tight binding; sequences stand for … in GGGUAAAAGCGAGGUGAA…CGGGACAAGUAUUAUGGG
row,Sequence,binding signal (log2 fold change)
1,GGUUGUGGUGUUGGUACCUAACACCGCGAC [gtspaired],-0.545
2,UUUUUUUUUUGAGAUGGCAUCCAUCUCCGG [tttttgagapaired],0.282
3,GGUUGGUGUGUUGGCCUCUAACACAUCGAC [gtspaired],-0.822
4,UUUUUUUUUUGAGAGGGAGGCCCUCUCCUG [tttttgagapaired],0.545
5,UUUUUUUUUUGAGACCGCAACGGUCUUCUA [tttttgagapaired],0.252
6,UUUUUUUUUUGAGAGUGUAUCACUCUCCUA [tttttgagapaired],-0.185
7,UUUUUUUUUUGAGAGGGACCCCCUCUUCUG [tttttgagapaired],0.425
8,UUUUUUUUUUGAGAUCGAUCCGAUCUCCAG [tttttgagapaired],0.242
9,UUCUUCCUUCCUCCGGGGGAGGAGGGGAGA [ctspaired],-0.363
10,GGUUGUGGUGUUGGUACCUAACACCGCAGC [gtspaired],-0.707
11,UUUUUUUUUUGAGACUGUGACAGUCUCCAG [tttttgagapaired],0.406
12,GUGUGUGGUGUUGGAGCCUAACACCACGCA [gtspaired],-0.347
13,UUUUUUUUUUGAGAGCGUACCGCUCUCCUA [tttttgagapaired],0.0322
14,GUGUGGUGUGUUGGACUCUAACACAUCGCG [gtspaired],-0.727
15,UUUUUUUUUUGAGAGCGACACGCUCUCCUG [tttttgagapaired],0.385
16,UUUUUUUUUUGAGACGGCGUCCGUUUCCUA [tttttgagapaired],0.892
17,UUUUUUUUUUGAGACCGACACGGUUUCCAG [tttttgagapaired],0.436
18,UUUUUUUUUUGAGACCGGGUCGGUCUCCUA [tttttgagapaired],0.391
19,UUUUUUUUUUGAGAUGGUUGCCAUCUUCUA [tttttgagapaired],0.138
20,UUUUUUUUUUGAGAUGGGUUCCAUCUUCUA [tttttgagapaired],0.112
21,UUUUUUUUUUGAGACUGUAACAGUCUCCAG [tttttgagapaired],0.32
22,UUUUUUUUUUGAGAGGGACCCCCUUUCCAG [tttttgagapaired],0.354
23,UUUUUUUUUUGAGACGGCAACUGUCUCCUG [tttttgagapaired],1.07
24,UUUUUUUUUUGAGAACGGUCCGUUCUCCAG [tttttgagapaired],0.392
25,UUUUUUUUUUGAGAGGGGAGCCCUCUCCUA [tttttgagapaired],0.577
26,UUUUUUUUUUGAGACCGUCACGGUCUCCGG [tttttgagapaired],0.399

row,Sequence,binding signal (log2 fold change)
1,GUGGUGUGUGUUGGUCUCUAACACAUACCA [gtspaired],-0.748
2,UUUUUUUUUUGAGAUGGGGGCCAUCUCCUG [tttttgagapaired],0.893
3,UUCUCUUCUCCUCCACUGGAGGGGGAGGGA [ctspaired],0.041
4,GGUGUGUGUGUUGGCUUCUAACACAUAUAC [gtspaired],-0.799
5,UUUUUUUUUUGAGAGGGCACCCCUCUCCUG [tttttgagapaired],0.808
6,UUUUUUUUUUGAGACUGGUGCAGUCUCCUG [tttttgagapaired],0.512
7,UUUUUUUUUUGAGAGGGAGACCCUCUUCUA [tttttgagapaired],0.506
8,UUUUUUUUUUGAGACUGUGGCAGUUUCCGG [tttttgagapaired],0.841
9,UUUUUUUUUUGAGAUGGUCUCCAUCUUCUA [tttttgagapaired],0.131
10,GUGUGUUGUGUUGGAAUCUAACACAGCGCA [gtspaired],-0.79
11,UUUUUUUUUUGAGACCGUAUCGGUCUCCUG [tttttgagapaired],0.716
12,GGUUGUGGUGUUGGCCUCUAACACCGCAGC [gtspaired],-0.615
13,UUUUUUUUUUGAGACUGGGGCAGUCUCCUG [tttttgagapaired],0.79
14,GUGUGGUGUGUUGGUGUCUAACACAUCACG [gtspaired],-0.975
15,GUGGUUGGUGUUGGCACCUAACACCAAUCA [gtspaired],-0.575
16,UUUUUUUUUUGAGAUGGCGGCCAUUUCCAG [tttttgagapaired],0.737
17,UUCUCUCUUCCUCCACUGGAGGAGGAGGGA [ctspaired],-0.333
18,UUUUUUUUUUGAGAGGGCUGCCCUCUCCGG [tttttgagapaired],1.03
19,UUUUUUUUUUGAGACGGUUUCCGUCUCCUA [tttttgagapaired],0.135
20,UUUUUUUUUUGAGAGGGUAGCCCUCUCCUG [tttttgagapaired],0.705
21,GGUGGUUGUGUUGGUUCCUAACACAAUCGC [gtspaired],-0.463
22,UUUUUUUUUUGAGACUGUAUCAGUCUUCUA [tttttgagapaired],0.249
23,UUUUUUUUUUGAGACUGGAUCAGUCUCCGG [tttttgagapaired],0.154
24,UUUUUUUUUUGAGAACGCGACGUUCUCCAG [tttttgagapaired],0.0919
25,UUUUUUUUUUGAGAGGGCUCCCCUCUCCUA [tttttgagapaired],0.474
26,UUUUUUUUUUGAGAUCGAAACGGUCUUCUA [tttttgagapaired],0.0948

row,Sequence,binding signal (log2 fold change)
1,UUUUUUUUUUGAGAGGGCUGCCCUCUUCUA [tttttgagapaired],0.93
2,UUUUUUUUUUGAGAUGGGUACCAUCUCCAG [tttttgagapaired],0.157
3,UUUUUUUUUUGAGAUGGCGUCCAUCUUCUA [tttttgagapaired],0.648
4,UUUUUUUUUUGAGACGGAGUCCGUCUCCAG [tttttgagapaired],0.339
5,GGUGUGUGUGUUGGUCUCUAACACAUACGC [gtspaired],-0.618
6,UUUUUUUUUUGAGAGGGGAGCCCUCUCCUG [tttttgagapaired],0.896
7,UUUUUUUUUUGAGAGCGUCACGUUCUCCAG [tttttgagapaired],0.596
8,GUGUGGUGUGUUGGCUCCUAACACACUAUA [gtspaired],-0.64
9,UUUUUUUUUUGAGAUGGGUGCCGUCUCCUA [tttttgagapaired],0.788
10,UUUUUUUUUUGAGACGGUGUCUGUCUCCGG [tttttgagapaired],0.873
11,UUUUUUUUUUGAGAGGGAAACCCUCUCCAG [tttttgagapaired],0.0238
12,GUGUGGUGUGUUGGAACCUAACACAUCGCG [gtspaired],-0.569
13,UUUUUUUUUUGAGACUGUGACAGUUUUCUA [tttttgagapaired],0.401
14,UUUUUUUUUUGAGACCGAAACGGUUUCCAG [tttttgagapaired],0.347
15,GUGGUGUGUGUUGGCCUCUAACACACAUCA [gtspaired],-0.762
16,GGUGUGUGUGUUGGUGCCUAACACAUAUAC [gtspaired],-0.464
17,UUUUUUUUUUGAGACGGGAUCCGUUUCCUG [tttttgagapaired],0.505
18,GUGUGGUGUGUUGGUGCCUAACACAUCACA [gtspaired],-0.28
19,GUGUUGUGUGUUGGCUCCUAACACACAGCG [gtspaired],-0.754
20,UUUUUUUUUUGAGAACGUAUCGUUCUCCAG [tttttgagapaired],0.0529
21,UUUUUUUUUUGAGAACGUGACGUUCUUCUA [tttttgagapaired],0.3
22,UUUUUUUUUUGAGACGGGAACCGUCUUCUA [tttttgagapaired],0.0219
23,GUGUGUUGUGUUGGCAUCUAACACAGCGCG [gtspaired],-0.716
24,UUUUUUUUUUGAGAUCGAGUCGAUCUCCUG [tttttgagapaired],0.135
25,GUGUGGUGUGUUGGUAUCUAACACACUACG [gtspaired],-0.583
26,GUGUGUGGUGUUGGAUUCUAACACCAUACG [gtspaired],-0.771

row,Sequence,binding signal (log2 fold change)
1,GGUGGUUGUGUUGGUCCCUAACACAGCUAC [gtspaired],-0.596
2,UUUUUUUUUUGAGACCGAAUCGGUUUCCAG [tttttgagapaired],0.44
3,UUUUUUUUUUGAGAGCGGUACGUUCUCCAG [tttttgagapaired],0.343
4,GUGGUGUGUGUUGGCGCCUAACACACAUCG [gtspaired],-0.429
5,UUUUUUUUUUGAGACUGGCACAGUCUUCUG [tttttgagapaired],0.784
6,GUGUGUUGUGUUGGACUCUAACACAACGCA [gtspaired],-0.14
7,UUUUUUUUUUGAGACCGGGUCGGUCUCCUG [tttttgagapaired],0.28
8,UUUUUUUUUUGAGACUGCUGCAGUCUCCUA [tttttgagapaired],0.641
9,UUUUUUUUUUGAGAGGGCACCCCUCUCCAG [tttttgagapaired],0.746
10,UUUUUUUUUUGAGAUGGUGGCCAUUUCCAG [tttttgagapaired],0.712
11,GUGUGGUGUGUUGGCUCCUAACACAUCACA [gtspaired],-0.932
12,UUUUUUUUUUGAGAAGGAAUCCUUCUCCUA [tttttgagapaired],0.0537
13,UUUUUUUUUUGAGAGGGGUGCCCUUUCCGG [tttttgagapaired],0.761
14,GUGUGUUGUGUUGGUGUCUAACACAGCGCA [gtspaired],-0.569
15,GUGGUUGGUGUUGGAAUCUAACACCAGCCG [gtspaired],-0.675
16,UUUUUUUUUUGAGACGGAGACCGUCUCCGG [tttttgagapaired],0.481
17,UUUUUUUUUUGAGAUGGAAUCCGUCUCCAG [tttttgagapaired],0.0723
18,UUUUUUUUUUGAGAGUGUAACACUCUCCUA [tttttgagapaired],-0.0263
19,UUUUUUUUUUGAGACGGUGGCCGUUUCCAG [tttttgagapaired],0.974
20,GUUGGUGGUGUUGGUCUCUAACACCACCGA [gtspaired],-0.426
21,UUUUUUUUUUGAGAUCGGUCCGAUCUCCUG [tttttgagapaired],0.679
22,GUGGUUGGUGUUGGUACCUAACACCGACCG [gtspaired],-0.397
23,GGUUGUUGUGUUGGCCUCUAACACAGCAAC [gtspaired],-0.611
24,GUGUUGUGUGUUGGACCCUAACACACAGCA [gtspaired],-0.212
